# In publication PMC6919601, “Identification of Plasmodium dipeptidyl aminopeptidase allosteric inhibitors by high throughput screening” (PLoS ONE, 2019):
# Hit rate of the full screen: of about 110,000 compounds, about 230 (0.21%) showed an effect of 50% or more. The list shows a part of the results.
# Target: DPAP1 (Plasmodium falciparum, UniProt Q8IIJ9)
# Assay: primary screen, percent inhibition; read by cleavage of a fluorogenic dipeptide substrate; higher = more effect of the substance
# Set-up: species or system P. falciparum D10 trophozoite lysates; single well
# 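Note: 30 min substrate incubation versus DMSO and 10 µM JCP410 controls.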
# Chain of DPAP1 (Q8IIJ9 whole entry, looked up): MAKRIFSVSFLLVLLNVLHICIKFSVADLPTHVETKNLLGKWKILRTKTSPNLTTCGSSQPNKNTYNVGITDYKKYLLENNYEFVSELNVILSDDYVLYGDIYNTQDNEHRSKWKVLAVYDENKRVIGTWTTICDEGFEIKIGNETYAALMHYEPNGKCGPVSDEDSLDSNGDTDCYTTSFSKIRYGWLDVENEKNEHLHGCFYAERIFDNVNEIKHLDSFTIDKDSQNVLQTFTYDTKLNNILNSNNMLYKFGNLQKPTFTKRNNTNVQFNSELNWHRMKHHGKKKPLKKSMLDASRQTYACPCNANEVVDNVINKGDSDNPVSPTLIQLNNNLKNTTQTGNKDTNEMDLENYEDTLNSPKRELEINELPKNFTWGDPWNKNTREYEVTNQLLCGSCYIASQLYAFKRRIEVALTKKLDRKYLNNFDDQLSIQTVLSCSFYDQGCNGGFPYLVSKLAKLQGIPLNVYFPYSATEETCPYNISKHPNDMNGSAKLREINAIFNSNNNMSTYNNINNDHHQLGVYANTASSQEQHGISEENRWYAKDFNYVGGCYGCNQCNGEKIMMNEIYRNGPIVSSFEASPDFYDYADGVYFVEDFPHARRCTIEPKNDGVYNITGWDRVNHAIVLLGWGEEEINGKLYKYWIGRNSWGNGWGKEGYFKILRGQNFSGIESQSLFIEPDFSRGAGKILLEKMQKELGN
row,SMILES,% Inhibition @ 10 uM [%]
1,CCOc1ccc(C(=O)NCCc2csc3nc(-c4ccc(C)cc4)nn23)cc1OCC,1.43
2,O=C(COc1cccc(NC(=O)c2cccs2)c1)c1ccc(F)cc1,-4.66
3,COc1ccc(C(=N)NOC(=O)CC(c2ccccc2)c2ccccc2)cc1OC,-2.98
4,Cc1ccc(-c2nnc(SCC(=O)N3CCC(C)CC3)o2)cc1C,1.3
5,O=C1c2ccccc2C2(O)Nc3nc(O)nc(O)c3C12O (centres unmarked),0.0265
6,COc1ccc2nc(NC(=O)C3CCN(S(=O)(=O)c4cccnc4)CC3)sc2c1,-7.85
7,CCOC(=O)c1cnn(-c2ccccc2)c1NC(=O)CSc1nnc2c3ccccc3n(C)c2n1,-2.39
8,CC(C)CC(=O)Nc1ccc(-c2nc3cc(Cl)ccc3o2)cc1,-1.57
9,Cc1ccc(C(=O)CC(C(=O)O)c2cn(C)c3ccccc23)cc1 (centres unmarked),2.22
10,Nc1ccccc1CC(c1c[nH]c2ccccc12)c1c[nH]c2ccccc12,-4.58
11,COc1cc(OC)c(NS(=O)(=O)c2ccc3ccccc3c2)cc1Cl,-5.29
12,CN1C(=O)C(=C(N)NC(=O)c2ccccc2)C(=O)N(C)C1=O,1.01
13,CCC(=O)/N=C(/Nc1ccccc1)Nc1nc(C)cc(C)n1,-1.3
14,Cn1cc(NC(=O)NCc2ccc(F)cc2)c2ccccc2c1=O,-2.14
15,Cc1ccccc1C1CC(=O)NC2=C1C(=O)CC(c1cccs1)C2 (centres unmarked),0.8
16,Cc1nc2nc(-c3ccc(Cl)cc3Cl)nn2c(C)c1CCC(=O)NCC1CCCO1 (centres unmarked),-2.45
17,COc1ccc(CCNC(=O)c2cc3c(s2)CSC3)cc1OC,-1.3
18,CC1(C)CC2=Nc3ccccc3NC(c3cccc(O)c3)C2=C(O)C1 (centres unmarked),-2.56
19,COc1ccc(CN2C(=O)C3C(c4ccccc4)OC4(C(=O)c5ccccc5C4=O)C3C2=O)cc1 (centres unmarked),-3.23
20,Cc1c(CC(=O)N2CCCC2)c(=O)oc2cc3occ(C(C)(C)C)c3cc12,-2.79
21,CC(C)c1cc(C(C)C)c(S(=O)(=O)N2CCOCC2)c(C(C)C)c1,6.61
22,Cc1c2cnn(CC(=O)N3CCC(C)CC3)c(=O)c2c(C)n1Cc1ccccc1,-2.17
23,COc1ccccc1-c1noc(CSc2nc(C)cc(O)n2)n1,3.93
24,O=C(CCS(=O)(=O)c1cccc2nonc12)Nc1nccs1,1.26
25,OC1=C2C(=Nc3nc4ccccc4n3C2c2cccs2)CCC1 (centres unmarked),-9.03

row,SMILES,% Inhibition @ 10 uM [%]
1,COC(=O)C1=C(C)OC(N)=C(C#N)C1c1cc(C)cc(Cn2ccc(C(F)(F)F)n2)c1C (centres unmarked),0.032
2,CC1(C)Cc2nc3sc4c(NCCc5ccccc5)ncnc4c3cc2CO1,-1.1
3,COc1ccc(S(=O)(=O)Nc2c(C)nc3sccn3c2=O)cc1,3.5
4,Cc1cccc2sc(N(CCCN(C)C)C(=O)CN3C(=O)c4ccccc4C3=O)nc12,-1.07
5,O=C(NCCCN1CCCC1=O)c1nc(-c2ccc(Cl)cc2)n2c1CCCCC2,-1.96
6,O=C(O)CSCC(=O)c1c[nH]c2ccccc12,-9.95
7,Cc1cccc(CCNC(=O)c2cc(O)nc3ccc(Br)cc23)c1,1.62
8,Cc1ccc(NC(=O)NC2CCCCC2)cc1Cl,-0.414
9,CC1C(O)CCN(C)C1c1ccccc1 (centres unmarked),-0.128
10,Cc1cccc(OCCCCc2c(C)n[nH]c2C)c1C,-1.64
11,Cc1cccc(OC(C)c2nc(-c3ccncc3)no2)c1 (centres unmarked),-4.75
12,COc1ccccc1C(=O)NC1(C(F)(F)F)C(=O)N(Cc2ccccc2)C(C)=C1C(C)=O (centres unmarked),3.93
13,COc1ccccc1-n1c(C)c(C(C)=O)c2cc(O)ccc21,-6.88
14,CC(=O)Nc1ccc2c(c1)C1C=CCC1C(c1ccc(Cl)cc1Cl)N2 (centres unmarked),4.57
15,Cc1ccc(OCC(=O)NCc2nc(-c3ccc(C)cc3)no2)cc1,-1.22
16,CCN(CC)S(=O)(=O)c1nnc(NC(=O)c2cccc3ccccc23)s1,-7.53
17,CCOC(=O)C1=C(CNC2CC(C)(C)NC(C)(C)C2)NC(=O)NC1c1ccc2c(c1)OCO2 (centres unmarked),2.57
18,Cc1ccc(Cc2c(C)nc3nc(SCC(=O)NCCN4CCCCC4C)nn3c2C)cc1 (centres unmarked),3.49
19,OC(c1ccccc1)(c1ccccc1)c1c[nH]cn1,-0.582
20,C=Cc1ccc(Cn2c(C(=O)O)c(CNCC(C)c3ccccc3)c3ccc(C)cc32)cc1 (centres unmarked),-0.537
21,Cn1ncc2c(N3CCN(Cc4ccc5c(c4)OCO5)CC3)ncnc21,4.15
22,O=C1CNC(=O)N1C12CC3CC(CC(C3)C1)C2,-3.42
23,O=C1c2ccccc2C(=O)N1CC1c2ccccc2CCN1C(=O)COc1ccc(Cl)cc1Cl (centres unmarked),-1.24
24,CCN(CC)C(=O)C1=CC(c2ccc(OC)cc2)=NS(=O)(=O)N1C,2.32
25,CC(NC(=O)c1ccc(C2SCC(=O)N2CCc2ccccc2)cc1)c1ccccc1 (centres unmarked),0.561
